Reference: PubChem BioAssay AID686978 (National Center for Advancing Translational Sciences (NCATS), 2013)
Several values for one entry are separate records, joined by “and”; a condition that tells them apart may be missing. Identical values can stand only once. The whole screen tested about 420,000 compounds, of which about 64,000 (15%) were called active. The inconclusive results got no clear call from the source; some entries with a clear call stand among them for comparison. Calls follow the shape of the dose curve; as a rule, active = well fitted inhibition curve with a large enough effect; inconclusive = small, poorly fitted or top-dose-only effect; inactive = flat fitted curve, though single readings scatter. Where the call is inconclusive, the potency comes from a doubtful curve fit.

Assay: qHTS for Inhibitors of human tyrosyl-DNA phosphodiesterase 1 (TDP1): qHTS in cells in absence of CPT; also: nearly all actives have a fitted effect of over 55% in size
Conditions: DT40 Tdp1-/- hTDP1 cells, no CPT, ATP luminescence, 48 h; activity change, negative = growth inhibition: at 46.2 µM (top of the series) unless noted
Method in brief: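 Stably hTDP1-transfected Tdp1-null chicken DT40 cells were treated with library compounds minus camptothecin and grown for at least 48 hr at 37 °C, after which cellular ATP was quantified by luminescence.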
% is scaled to controls: 0 for no effect and ±100 for the full control effect; potency is read from the fitted curve at half-maximal effect; tags tell the direction and shape of the fitted curve.

SMILES	Potency	activity change, negative = growth inhibition
COC(=O)c1cn(-c2ccccc2)nc1-c1ccc(OC)c(OC)c1	inconclusive: 11.6 µM [inhibitor, partial curve]	–
COc1cccc(NC(=S)N2CCC(c3ccc(C)cc3)C2)c1 (stereo unspecified)	active: 7.31 µM	–
COc1cccc(-c2ccc3c(c2)N(Cc2cccc(F)c2)C(=O)C(C)S3)c1 (stereo unspecified)	inconclusive: 25.9 µM [inhibitor, single point]	–
CC(NS(=O)(=O)c1cccc(C(=O)N(C)Cc2ccc(N3CCOCC3)cc2)c1)c1ccccc1 (stereo unspecified)	inconclusive: 14.6 µM [inhibitor, partial curve]	–
O=C(NCc1ccccc1)C(C1CC1)n1c(Cc2cc(F)cc(F)c2)nc2ccccc21 (stereo unspecified)	active: 18.4 µM	–
Cc1ccc(S(=O)(=O)CCC(=O)NCCN2C(=O)S/C(=C\c3ccccc3)C2=O)cc1	inconclusive: 20.6 µM [inhibitor, single point]	–
CCN(CC)S(=O)(=O)c1csc(C(=O)NC2CCCCC2)c1	–	inactive: -23%
CCOc1ccc(Oc2ccccc2NC(=O)C2=COCCO2)cc1	inconclusive: 18.4 µM [inhibitor, partial curve]	–
ONC(=Nc1ccc(Cl)cc1)c1ccc(Cl)cc1	–	inactive: -21.2%
Cc1ccc(NC(=O)CN2CC(C)SC2=NC2CCCCC2)cc1 (stereo unspecified)	inconclusive: 25.9 µM [inhibitor, single point] and inconclusive: 29.1 µM [inhibitor, single point]	–
CCCCNC(=O)C1CCN(S(=O)(=O)c2ccc3c(c2)CC(C)N3C(=O)C2CC2)CC1 (stereo unspecified)	inconclusive: 25.9 µM [inhibitor, single point]	–
COc1ccc(/C=C/C(=O)N(C)c2ccccc2C(=O)O)cc1	–	inactive: 8.13%
Cc1nc2sc(C(c3ccco3)N3CCN(C(c4ccccc4)c4ccccc4)CC3)c(O)n2n1 (stereo unspecified)	active: 18.4 µM	–
COc1ccc(Cc2nnc(SCC(=O)Nc3cc(Cl)ccc3OC)[nH]c2=O)cc1	inconclusive: 7.31 µM [inhibitor, full curve, poor fit]	–
COc1cccc(NC(=O)CCC2CCN(C(=O)c3ccc(C(C)=O)s3)CC2)c1	–	inactive: 2.74%
N#C/C(=C\Nc1ccccc1SC(F)(F)F)c1nc(-c2ccc(F)cc2)cs1	–	inactive: -2.01%
COc1ccc([N+](=O)[O-])cc1N1C(=O)c2cccc3cccc(c23)C1=O	–	inactive: -21.9%
CC1=C(C(=O)Nc2cc(C(=O)N(C)Cc3ccccc3)ccc2C)SCCO1	–	inactive: -1.84%
CNC(=O)NC(=O)CSc1ccc(S(=O)(=O)N(C)C2CCCCC2)cn1	inconclusive: 25.9 µM [inhibitor, single point]	–
COC(=O)[C@@]12C[C@@H](CC(=O)NCCc3ccccc3OC)C(=O)N(CCc3ccc(OC)c(OC)c3)C1=CCC(C)(C)C2	inconclusive: 29.1 µM [inhibitor, single point]	–
CCOc1ccc(C(CC(=O)O)NS(=O)(=O)c2ccc(C)cc2)cc1OC (stereo unspecified)	inconclusive: 29.1 µM [inhibitor, single point]	–
COc1ccc(C/C(N)=N/OC(=O)COc2ccccc2C)cc1	–	inactive: -15%
Cc1cc(C)n(CC(=O)N2CCCC(N3CCN(c4ccc(F)cc4)CC3)C2)n1 (stereo unspecified)	–	inactive: -0.24%
O=C(c1ccc2ccccc2c1O)N1CCCCC1	inconclusive: 29.1 µM [inhibitor, single point]	–

SMILES	Potency	activity change, negative = growth inhibition
C=CCNC(=O)COC(=O)CCC(=O)c1cccs1	–	inconclusive: -26.9% [inhibitor]
NC(=O)c1ccc[n+]([C@@H]2OC(COP(=O)([O-])OP(=O)(O)OCC3OC(n4cnc5c(N)ncnc54)C(OP(=O)(O)O)C3O)C(O)C2O)c1 (stereo partly specified)	inconclusive: 18.4 µM [inhibitor, single point]	–
O=C(NCc1nnnn1-c1ccccc1)c1ccc2ccccc2c1	–	inactive: -16%
COc1ccc2c(c1)OC[C@H]1[C@H]2N2C(=O)c3ccc(F)cc3NC(=O)[C@@]2(C)[C@H]1c1ccccc1	active: 23.1 µM	–
O=S(=O)(c1ccc(Br)cc1)n1ccc2ccccc21	active: 18.4 µM	–
COc1ccc(NC(=O)C(=O)N/N=C/c2cccnc2)cc1	–	inactive: -25%
COc1cccc(S(=O)(=O)N(C)C[C@@H]2OCc3cnnn3CCCC(=O)N([C@@H](C)CO)C[C@H]2C)c1	–	inactive: -4.8%
C=CCN(CC=C)C(=O)Cc1ccc(F)cc1	–	inactive: -17.9%
CCOC(=O)C(CSCc1ccccc1)NC(=O)OC(C)(C)C (stereo unspecified)	inconclusive: 18.4 µM [inhibitor, partial curve]	–
O=C(Nc1ccc(N2CCN(C(=O)c3ccccc3)CC2)cc1)c1cc2ccccc2o1	active: 5.17 µM	–
CC(C)c1nc2sc3c(=O)[nH]cnc3c2c2c1CCC2	–	inactive: -29.8%
COC(=O)[C@]12CCCCC=C1N(CCc1ccc(OC)c(OC)c1)C(=O)[C@H](CC(=O)NCc1ccc(C)o1)C2	inconclusive: 18.4 µM [inhibitor, single point]	–
Cc1ccc2c(c1)N(CC(=O)NCCC1=CCCCC1)C(=O)c1cccnc1O2	inconclusive: 16.4 µM [inhibitor, single point]	–
COc1cccc(C(=O)NCCS(=O)(=O)N2CCN(c3ccccc3)CC2)c1OC	–	inactive: -27.2%
Cc1ccc2c(c1)-c1c(cnn1CC(=O)N1CCN(c3cccc(C(F)(F)F)c3)CC1)CO2	inconclusive: 20.6 µM [inhibitor, single point]	–
COC(=O)c1c(C)[nH]c(C(=O)/C=C/c2ccc(Cl)cc2)c1C	inconclusive: 20.6 µM [inhibitor, single point]	–
CN1CCCC1CCNc1ccc2c(=O)c3ccccc3oc2c1 (stereo unspecified)	active: 18.4 µM	–
COc1ccc(OC)c(NC(=O)c2cccc(S(=O)(=O)N(Cc3ccccc3)c3ccccc3OC)c2)c1	inconclusive: 11.6 µM [inhibitor, partial curve]	–
CCCCC/S(CC1CC1(Cl)Cl)=N\S(=O)(=O)c1ccc(C)cc1 (stereo unspecified)	inconclusive: 29.1 µM [inhibitor, single point]	–
Cc1noc(C)c1-c1cc(N2CCNCC2)ncn1	–	inactive: -3.22%
c1csc(CNc2nc(CN3CCCC(c4nc5ccccc5o4)C3)nc3ccccc23)c1 (stereo unspecified)	inconclusive: 16.4 µM [inhibitor, single point]	–
Cc1nc(SCC(=O)OC(C)(C)C)c2c3c(sc2n1)CCCC3	inconclusive: 16.4 µM [inhibitor, single point]	–
Cc1ccc(C(=O)NCc2cccc(C(F)(F)F)c2)cc1S(=O)(=O)N1CCCCC1	inconclusive: 11.6 µM [inhibitor, partial curve]	–
COc1ccccc1-c1csc(C(C)(O)c2cccc(F)c2)n1 (stereo unspecified)	active: 16.4 µM	–

SMILES	Potency	activity change, negative = growth inhibition
CCc1cccc(C)c1NS(=O)(=O)c1ccc2c(c1)NC(=O)C(C)C(=O)N2 (stereo unspecified)	–	inactive: -3.93%
CCc1ccccc1NC(=O)COC(=O)c1c(C)nsc1NC	active: 2.91 µM	–
COc1ccc(NC(=O)/C=C/c2ccc(OC)c(OC)c2)cn1	inconclusive: 23.1 µM [inhibitor, single point]	–
Cn1c(/C(C#N)=C(\O)CN2CCN(Cc3ccccc3)CC2)nc2ccccc21	–	inactive: -19.9%
Cc1ccc(CNC(=O)c2c(-c3ccc(F)cc3F)noc2C)o1	–	inactive: -25.9%
COc1ccc(-c2cn3nc(N4CCCC(C(=O)Nc5cc(Cl)ccc5OC)C4)sc3n2)cc1 (stereo unspecified)	inconclusive: 16.4 µM [inhibitor, partial curve]	–
O=C(NCc1cccc(Cl)c1)C1CCN(c2nn3cc(-c4ccc(F)cc4)nc3s2)CC1	inconclusive: 13 µM [inhibitor, partial curve]	–
CCCCNc1ncnc2c1cnn2-c1ccc(Cl)cc1	active: 4.61 µM	–
O=c1c2cc(Cl)ccc2nc(-c2ccc([N+](=O)[O-])cc2)n1O	inconclusive: 29.1 µM [inhibitor, single point]	–
Cn1c(CC(=O)Nc2ccccc2)nnc1SCC(=O)NC1=NCCS1	inconclusive: 32.6 µM [inhibitor, single point]	–
O=S(=O)(c1ccccc1)c1ccc(N2CCCCCC2)cc1	inconclusive: 29.1 µM [inhibitor, single point]	–
Cc1nc2c(-c3ccccc3)c(C)[nH]n2c(=O)c1Cl	–	inactive: -2.41%
CCOC(=O)c1cc2c(=O)n3ccccc3nc2n(Cc2ccco2)c1=NC(=O)c1ccc(OC)cc1	active: 5.17 µM	–
CC(C)(C)NC(=O)C(c1ccccc1F)N(Cc1ccco1)C(=O)c1csnn1 (stereo unspecified)	inconclusive: 0.82 µM [inhibitor, full curve]	–
CCOc1ccc(S(=O)(=O)Nc2nc3ccccc3nc2Nc2ccc(N3CCOCC3)cc2)cc1	inconclusive: 29.1 µM [inhibitor, single point]	–
COc1ccccc1NC(=O)C(C)N(C)Cc1ccc(Cl)s1 (stereo unspecified)	inconclusive: 29.1 µM [inhibitor, single point]	–
CSc1ccc(CNC(=O)c2ccc3c(c2)N(C)C(=O)C2CCCCN32)cc1 (stereo unspecified)	inconclusive: 29.1 µM [inhibitor, single point]	–
Cc1ccccc1OCc1ccc(-c2nc(C#N)c(N3CCCCC3)o2)o1	active: 23.1 µM	–
C/C(=N\Nc1nncc2ccccc12)c1ccc(OCC(=O)N(C)C)cc1	inconclusive: 29.1 µM [inhibitor, single point]	–
CC1CC(C)CN(C(=O)c2ccc3ccccc3c2)C1 (stereo unspecified)	inconclusive: 16.4 µM [inhibitor, partial curve]	–
COc1ccc(CC(=O)NCC(c2ccc(N(C)C)cc2)N2CCOCC2)cc1OC (stereo unspecified)	–	inconclusive: -31.7% [inhibitor]
CC1CCN(S(=O)(=O)c2ccc(NC(=O)CN3CCN(c4ccccc4)CC3)cc2)CC1	–	inactive: -26.1%
Cc1cc(C)cc(OC2CCCCC2NS(=O)(=O)c2ccccc2)c1 (stereo unspecified)	inconclusive: 23.1 µM [inhibitor, single point]	–
